# Data as given in publication PMC4336329 (PLoS ONE, 2015).
# In all, about 310,000 compounds went through this assay and about 2,200 (0.71%) showed an effect of 50% or more. Effects have a minus sign here. The list shows a part of the results.
# Molecular target: human ether-à-go-go-related gene (hERG) potassium channel (human, UniProt Q12809)
# Assay: primary screen, population patch clamp on CHO cells stably expressing hERG
# Chain of human ether-à-go-go-related gene (hERG) potassium channel (Q12809 whole entry, looked up): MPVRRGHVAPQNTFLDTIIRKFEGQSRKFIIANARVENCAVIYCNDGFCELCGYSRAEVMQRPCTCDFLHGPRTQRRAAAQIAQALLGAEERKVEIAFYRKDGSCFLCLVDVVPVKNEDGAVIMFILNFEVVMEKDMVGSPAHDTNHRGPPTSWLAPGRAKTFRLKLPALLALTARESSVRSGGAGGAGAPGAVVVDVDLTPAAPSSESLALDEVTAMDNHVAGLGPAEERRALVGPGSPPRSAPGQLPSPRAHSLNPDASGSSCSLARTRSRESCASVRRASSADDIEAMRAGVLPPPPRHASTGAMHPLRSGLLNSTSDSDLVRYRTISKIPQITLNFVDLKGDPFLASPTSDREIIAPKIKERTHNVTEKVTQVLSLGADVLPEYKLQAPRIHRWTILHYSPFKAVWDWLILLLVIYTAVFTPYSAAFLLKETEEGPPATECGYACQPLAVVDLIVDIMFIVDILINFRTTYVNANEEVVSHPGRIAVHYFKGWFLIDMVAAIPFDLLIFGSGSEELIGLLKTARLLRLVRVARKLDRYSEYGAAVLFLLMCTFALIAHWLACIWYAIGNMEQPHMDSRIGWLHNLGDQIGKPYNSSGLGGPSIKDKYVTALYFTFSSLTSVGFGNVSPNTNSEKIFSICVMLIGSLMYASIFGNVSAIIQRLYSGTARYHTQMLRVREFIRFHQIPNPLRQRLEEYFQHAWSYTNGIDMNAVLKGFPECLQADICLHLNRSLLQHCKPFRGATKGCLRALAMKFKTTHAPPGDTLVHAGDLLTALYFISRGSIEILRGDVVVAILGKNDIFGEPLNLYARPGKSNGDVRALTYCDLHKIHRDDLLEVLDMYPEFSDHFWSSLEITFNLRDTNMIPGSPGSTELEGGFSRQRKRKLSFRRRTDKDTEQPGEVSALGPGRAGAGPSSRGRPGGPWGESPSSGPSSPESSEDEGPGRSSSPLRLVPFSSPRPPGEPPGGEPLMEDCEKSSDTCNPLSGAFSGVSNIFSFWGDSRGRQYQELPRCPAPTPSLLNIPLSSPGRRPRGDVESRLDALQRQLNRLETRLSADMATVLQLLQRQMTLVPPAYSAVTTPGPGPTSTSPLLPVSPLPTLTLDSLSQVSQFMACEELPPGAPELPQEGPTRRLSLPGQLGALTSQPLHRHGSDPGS
row,SMILES,"hERG current change (%, negative = inhibition) at 1uM"
1,O=c1c2ccccc2sc2ccc(NCCCN3CCOCC3)cc12,6.03%
2,CCCOC(=O)Nc1sc2c(c1C(N)=O)CCCC2,17.7%
3,CCOC(=O)/C(N=Nc1c(C)n(C)n(-c2ccccc2)c1=O)=C(\C)O,5.02%
4,COc1ccc(Cl)cc1NS(=O)(=O)c1cccc(C(=O)NCC2(N(C)C)CCCCC2)c1,3.91%
5,COc1ccc(OC)c(/C=N/NC(=O)c2cc3c(OC)cc(OC)cc3[nH]2)c1,22.5%
6,COc1ccc(C(=O)N2CC(=O)Nc3ccc(F)cc3C2c2ccccc2)cc1 (centres unmarked),7.28%
7,Cc1ccc(NC(=O)C2CCN(S(=O)(=O)c3ccc4c(c3)OCCO4)CC2)nc1,8.86%
8,CCCOC(=O)c1cccc(NC(=O)c2cccnc2)c1,-7.06%
9,CCCCC1(C(=O)OCC)CC(CN2CCOCC2)OC1=O (centres unmarked),2.84%
10,CCn1c(COc2ccc(=O)n(-c3ccccc3)n2)nnc1SCc1ccccc1C,-43.9%
11,CCS(=O)(=O)c1ccc2oc(Nc3cc(Cl)ccc3OC)nc2c1,7.99%
12,O=C(COC(=O)CCc1c[nH]c2ccccc12)NC1CCS(=O)(=O)C1 (centres unmarked),11.7%
13,O=C(CSc1nc2cc(Cl)ccc2s1)NC1CCCc2ccccc21 (centres unmarked),3.95%
14,CCCCNC(=O)c1ccccc1NC(=O)c1ccc2c(c1)OCO2,12.6%
15,CCOC(=O)COc1ccc2c(c1)c(C(=O)OCC)c(C)n2CC,1.5%
16,NC(=O)c1ccc[n+](CC(=O)c2ccc(NC(=O)c3ccccc3)cc2)c1.[Br-],13.8%
17,O=C(Nc1ccc2c(c1)OCO2)C(c1ccccc1)N1CCN(C(=O)c2ccco2)CC1 (centres unmarked),5.53%
18,O=C(C[N+]12CC[N+](CC(=O)c3ccc(F)cc3)(CC1)CC2)c1ccc(F)cc1.[Cl-],16%
19,Cc1cccc(C)c1NC(=S)NN1CCN(C)CC1,11.2%
20,COc1ccc(OC)c(NC(=O)CSc2ncccn2)c1,10.8%
21,CCCCN(C(=O)NC(=O)C1=C(N2CCOCC2)/C(=C/c2ccccc2)CC1)S(C)(=O)=O,6.19%
22,CCC(c1nnc(SCC(=O)Nc2ccc(C(=O)Nc3ccccc3OC)cc2)o1)N(C)C (centres unmarked),8.32%

row,SMILES,"hERG current change (%, negative = inhibition) at 1uM"
1,O=C(COc1ccccc1[N+](=O)[O-])Nc1ccccc1N1CCCCC1,-2.02%
2,[2H]c1c([2H])c([2H])c(-c2nc(N3CCCCCC3)sc2C(=O)c2ccccc2)c([2H])c1[2H],17.4%
3,CCS(=O)(=O)N1CCN(CC(=O)NC2CCCCC2)CC1.Cl,15.7%
4,COc1ccc(S(=O)(=O)N2CCC(C(=O)NCCC(=O)NCc3ccncc3)CC2)cc1,6.8%
5,COc1ccc(/C=N/OCC(=O)N=Nc2c(O)[nH]c3ccc(Br)cc23)cc1OC,2.83%
6,CCN(CC)S(=O)(=O)c1ccc2[nH]cc(C(=O)NCCCN3CCCCC3C)c(=O)c2c1 (centres unmarked),3.88%
7,COCC(=O)Nc1ccccc1NC(C)=O,-6.55%
8,O=C(/C=C/c1ccco1)N1CCN(c2ccc(F)cc2)CC1,4.13%
9,Cc1ccc(C(=O)N/C(=C\c2cn(C)c3ccccc23)C(=O)N2CCN(C)CC2)cc1,7.94%
10,Cc1cc(OCC(=O)NC2CCN(C)CC2)ccc1[N+](=O)[O-],10.8%
11,COc1cccc(CNC(=O)c2cc3oc4ccccc4c3n2C)c1OC,12.8%
12,CCc1cccc(OCC(=O)Nc2ccc(S(=O)(=O)Nc3ccccn3)cc2)c1,6.86%
13,CCN(CC)C(=O)c1ccc(-c2nnc(OC)c3ccccc23)cc1,-1.67%
14,COc1cccc(-n2c(=O)c3c(C)c(C(=O)N(C)C)sc3n(CC(=O)NCC3CCCO3)c2=O)c1 (centres unmarked),7.29%
15,Cc1ccc(N=Cc2sc(O)c3ccccc23)cc1,17.2%
16,O=c1c2cc3c(cc2[nH]c(=S)n1CCN1CCOCC1)OCO3,4.6%
17,Cc1ccsc1/C=N/n1cnc2sc(C)c(C)c2c1=O,1.24%
18,COc1ccc(N2C(=O)c3ccc(C(=O)Nc4ccc(NC(C)=O)cc4)cc3C2=O)cc1,1.58%
19,CC1CCN(C(=S)Nc2cccc(S(=O)(=O)N(C)C)c2)CC1,18.2%
20,CCC(=O)N1CCN(c2ccc(NC(=O)c3ccc4c(c3)OCO4)cc2)CC1,7.92%
21,CN(CC(=O)Nc1ccccc1N1CCOCC1)S(=O)(=O)c1ccc(Cl)cc1,10.1%
22,COc1ccc(NC(=S)N2CCc3ccccc3C2)cc1,1.69%

row,SMILES,"hERG current change (%, negative = inhibition) at 1uM"
1,Cc1ccccc1NC(=O)Cn1nc(C(F)(F)F)cc1C1CC1,5.56%
2,Cc1ccc(C)c(S(=O)(=O)N2CCN(C(=O)Cn3c(C(F)(F)F)nc4ccccc43)CC2)c1,3.57%
3,COc1cccc2cc(-c3ccccc3)oc12,14.3%
4,COc1cccc(N2CCN(C(c3ccccn3)c3nnnn3C(C)(C)C)CC2)c1 (centres unmarked),14%
5,O=C(NCC(c1cccnc1)N1CCN(c2ccc(F)cc2)CC1)C1CCCCC1 (centres unmarked),-2.23%
6,COc1ccc(OC)c(-c2nnc(-c3ccc(C)o3)o2)c1,5.37%
7,O=C1N(c2cccc3ccccc23)C(c2ccccc2)N2CCCN12 (centres unmarked),3.51%
8,Cc1nc(S(=O)(=O)Cc2ccccc2)nc2c1CCC2,9.14%
9,CCC(=O)c1cn(CC(=O)Nc2ccc(C)cc2C)c2ccccc12,15.3%
10,COc1ccc(CN2CCN(S(=O)(=O)c3ccc(NC(C)=O)cc3)CC2)cc1OC.O=C(O)C(=O)O,-2.26%
11,CCc1ccccc1NC(=S)Nc1cc(OC)c(NC(=O)C(C)C)cc1OC,10.8%
12,O=C(COc1ccccc1)NNC(=O)c1cc2ccccc2o1,7%
13,COCCn1c(=O)c2c(nc3n2CCCN3Cc2ccccc2)n(C)c1=O,-3.03%
14,COc1ccc(Cl)cc1S(=O)(=O)N(C)CC(=O)N1CCOCC1,21.9%
15,O=C(O)CNC(=O)CC12CC3CC(CC(C3)C1)C2,12.8%
16,Cc1ccc(NC(=O)c2cc3c(CO)cnc(C)c3oc2=Nc2cccc(C(N)=O)c2)cc1,10%
17,Cc1ccc(NC(=O)CC2C(=O)N(Cc3ccccc3)C(=S)N2NC(=O)c2ccccc2)c(C)c1 (centres unmarked),17.8%
18,CCC1CCCCN1Cc1c(O)ccc2c(=O)c(-c3ccccc3)coc12 (centres unmarked),2.84%
19,CS(=O)(=O)N1CCC(C(=O)NCCN2CCN(Cc3ccccc3)CC2)CC1,17.5%
20,Cc1ccc(Cl)c(OCC(=O)NCC(c2cccs2)N2CCOCC2)c1 (centres unmarked),6.76%
21,O=C(O)/C=C1\NC(=O)c2ccccc21,16.5%
22,Cn1cccc1Cc1nnc(SCC(=O)NCc2ccc3c(c2)OCO3)n1CCc1ccccc1,8.35%

row,SMILES,"hERG current change (%, negative = inhibition) at 1uM"
1,COC(=O)C[C@H]1c2cc(C(F)(F)F)ccc2S(=O)(=O)N1Cc1ccc(OC)cc1,7.52%
2,CCOc1ccc(-n2cnnn2)cc1S(=O)(=O)NCCc1ccc(OC)c(OC)c1,10.5%
3,O=C(COC(=O)c1ccccc1OC(F)F)Nc1ccc2[nH]c(=O)[nH]c2c1,7.3%
4,CC(C)S(=O)(=O)C1=NSC2=NC(=O)/C(=C\c3ccc(-c4ccccc4)o3)C(=N)N21,6.17%
5,Cc1ccc(-c2nn3nnnc3c3ccccc23)cc1,12.9%
6,COc1ccccc1N1CCN(C(=O)C2C3C=CC4(CN(Cc5ccccc5Cl)C(=O)C24)O3)CC1 (centres unmarked),-9.39%
7,Cc1c(C(=O)NCC2COc3ccccc3O2)oc2ccc(S(=O)(=O)N3CC(C)CC(C)C3)cc12 (centres unmarked),12.1%
8,Cc1ccc(S(=O)(=O)NCC2CCC(C(=O)NCc3ccc4c(c3)OCO4)CC2)cc1 (centres unmarked),6.44%
9,O=c1cc(-c2ccccc2)[nH]n1-c1nc2ccccc2s1,12.9%
10,O=C(NC1CCCCC1)C1CCCN1S(=O)(=O)c1ccc(Cl)cc1 (centres unmarked),3.48%
11,CC1CN(C(=O)CN2C(=O)NC3(CCCC3)C2=O)C(=Nc2cccc(S(=O)(=O)N(C)C)c2)S1 (centres unmarked),9.45%
12,Cc1ccn2c(=O)nc(SCC(=O)NC3CCCC3)nc2c1,14.6%
13,CCCCC1(Cc2ccc([N+](=O)[O-])cc2)C(=O)N(c2ccccc2)N(c2ccccc2)C1=O,8.69%
14,CCCCN(C)C(=O)CS(=O)(=O)Cc1nc(-c2cccc(OC)c2)oc1C,-1.55%
15,CN1CCN(CC(O)COc2ccccc2)CC1 (centres unmarked),0.443%
16,CCCn1c(N)c(N(CCOC)C(=O)c2cccc(Cl)c2)c(=O)[nH]c1=O,30.3%
17,CCCC(=O)NC1CCCc2c1cnn2-c1ccc(C)c(C)c1 (centres unmarked),-21%
18,O=S1(=O)CC(O)C(Nc2ccccc2Cl)C1 (centres unmarked),-6.4%
19,Cc1ccc(NC(=O)Cn2c(=O)cnc3ccccc32)cc1S(=O)(=O)N1CCOCC1,3.77%
20,O=C(CCCc1nc(-c2ccccc2Cl)no1)NC1CCCCC1,11.9%
